Hit rate of the full screen: of about 52,000 compounds, about 1,700 (3.3%) were called active. Cut-off read from the data, not from the text of the source: active = survival mostly below about 52% (no sharp cut-off); inactive = mostly above about 56%. The list shows a part of the results.

The subject of this assay is Wild type. The experiment in a line: growth inhibition of S. aureus wild type versus tarO mutant, primary screen, teichoic acid synthesis inhibitors, RN4220, OD600 (AID 463173). The conditions noted are these: S. aureus RN4220 wild type/DeltatarO growth, OD600, 18 h, stronger effect = lower value, screened at 18.75 µg/mL (by protocol).
On to `Cc1coc2cc3oc(=O)c(CCC(=O)N4CCCCC4)c(C)c3cc12`, for which the survival was inactive: 83%.

On to `COc1cccc(NC(=O)Cn2c(=O)n(-c3ccccc3)c(=O)c3c4c(sc32)CCCC4)c1`, for which the survival is inactive: 112%.

As to `Cc1ccccc1-c1ccnc2c(-c3ccc(F)cc3)c(C)nn12`, the survival was active: -13%.

Consider `Cc1ccc(-c2cc(N)n(Cc3cccc(Cl)c3)n2)cc1`, for which the survival is inactive: 65%.

As to `Cc1ccc(C)c(NC(=O)CCc2nc3cccnc3n2Cc2cccs2)c1`, the survival is inactive: 88%.

Take `CCN(CC)C(=O)CSc1nc(-c2ccccc2)cc(-c2ccc(OC)cc2)c1C#N`: the survival is inactive: 77%.

Turning to `COc1ccc(C2Nc3ccccc3-n3c(-c4ccccc4)c4c(=O)n(C)c(=O)n(C)c4c32)cc1` (stereo not given), the survival is active: -3%.

`c1ccc(C2CCC(N3CCNCC3)CC2)cc1` (stereo not given): the survival was inactive: 113%.

With `Cc1cc2nc(NC(=O)c3ccc(S(=O)(=O)N4CCOCC4)cc3)sc2cc1C`, the survival was inactive: 88%.

`COc1ccccc1-c1noc(-c2ccc(NCc3ccccc3)c([N+](=O)[O-])c2)n1`: the survival was inactive: 74%.

With `COc1ccc(C)cc1NC(=O)CN(C)S(=O)(=O)c1ccc2c(c1)CCCN2C(C)=O`, the survival was inactive: 68%.

Turning to `COCCCN1CN=C(NS(=O)(=O)c2ccc(NC(C)=O)cc2)NC1`, the survival was inactive: 74%.

For the molecule `CCOc1ccc(NC(=O)Nc2cccc(C)n2)cc1`, the survival is inactive: 75%.

Turning to `Cc1ccc(-n2nc3c(N4CCC(C(=O)NCCc5ccccc5)CC4)nnc(C)c3c2C)cc1`, the survival was inactive: 74%.

As to `CCC(=O)N1CCc2cc(S(=O)(=O)N3CCN(c4ccccc4F)CC3)ccc21`, the survival was inactive: 82%.

In the case of `COc1cc(OC)c(NC(=O)Cn2nc(C)n3cccc3c2=O)cc1Cl`, the survival was inactive: 90%.

Turning to `COc1ccc(C)cc1NC(=O)CN1C(=O)CSc2ccc(S(=O)(=O)N3CCCC3)cc21`, the survival was inactive: 93%.

For `CC1=C(c2cccc(Cl)c2)S(=O)(=O)NC1=NCc1ccccc1C`, the survival was inactive: 122%.

On to `COc1ccc(N2Cc3cccc(C(=O)Nc4ccc(C)cc4)c3C2=O)cc1`, for which the survival was inactive: 86%.

Take `CCOC(=O)c1sc2ccccc2c1S(=O)(=O)N1CCN(c2ccccc2F)CC1`: the survival was inactive: 70%.

Regarding `COc1cc(-c2noc(-c3ccc(N4CCCC4)c([N+](=O)[O-])c3)n2)cc(OC)c1OC`, the survival was inactive: 84%.

Consider `CC(=O)N1CCc2c(sc3c2c(=O)n(Cc2ccccc2)c(=O)n3Cc2cccc(Cl)c2)C1`, for which the survival is inactive: 116%.

Consider `COc1ccc(-c2cn3nc(N4CCC(C(=O)NCc5cccc(Cl)c5)CC4)sc3n2)cc1`, for which the survival was inactive: 121%.

In the case of `COC(=O)c1ccc(Nc2nc(-c3ccc(C)cc3)nc3ccccc23)cc1`, the survival was active: 7%.

`CC1=Nc2cc(C(=O)NC3CCC(C)CC3)ccc2Sc2c(C)ccc(C)c21` (stereo not given): the survival was inactive: 84%.

The values above are taken from PubChem BioAssay AID463173 (ICCB-Longwood Screening Facility, Harvard Medical School, 2010).
